Assay [1] has as its target T1, Rps2-G4BD (S. cerevisiae), P25443.
T1 chain: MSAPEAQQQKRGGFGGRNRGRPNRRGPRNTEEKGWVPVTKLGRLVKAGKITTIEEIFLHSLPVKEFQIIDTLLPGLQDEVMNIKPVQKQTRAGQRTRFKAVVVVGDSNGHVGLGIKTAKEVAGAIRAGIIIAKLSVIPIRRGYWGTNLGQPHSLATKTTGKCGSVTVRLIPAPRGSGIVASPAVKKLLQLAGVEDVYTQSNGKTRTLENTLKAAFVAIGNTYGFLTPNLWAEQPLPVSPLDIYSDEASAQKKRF
Nature of the assay: two-hybrid; Yeast strain PJ69-4A; Rps2 variants N- or C-terminally fused to the Gal4 DNA-binding domain, Pse1 or Pse1.302C C-terminally fused to the Gal4 activation domain, 2µ high-copy plasmids; growth on -HLT (weak) and -ALT (strong), 3 days at 30 °C. The conditions noted are these: remark: other sources report otherwise.

In assay [2] the target is T2, G4BD-Rps2 (S. cerevisiae), P25443.
T2 chain: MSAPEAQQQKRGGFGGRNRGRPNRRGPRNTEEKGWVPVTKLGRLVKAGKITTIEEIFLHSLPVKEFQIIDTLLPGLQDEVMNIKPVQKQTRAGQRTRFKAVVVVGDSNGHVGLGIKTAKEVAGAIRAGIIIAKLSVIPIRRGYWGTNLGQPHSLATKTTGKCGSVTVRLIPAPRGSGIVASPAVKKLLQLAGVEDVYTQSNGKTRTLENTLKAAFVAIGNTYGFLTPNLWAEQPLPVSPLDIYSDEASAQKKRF
The description is as above. The note with it: remark: other sources report otherwise.

In assay [3] the target is T3, Rps2-G4BD (S. cerevisiae) (UniProt P25443).
T3 sequence: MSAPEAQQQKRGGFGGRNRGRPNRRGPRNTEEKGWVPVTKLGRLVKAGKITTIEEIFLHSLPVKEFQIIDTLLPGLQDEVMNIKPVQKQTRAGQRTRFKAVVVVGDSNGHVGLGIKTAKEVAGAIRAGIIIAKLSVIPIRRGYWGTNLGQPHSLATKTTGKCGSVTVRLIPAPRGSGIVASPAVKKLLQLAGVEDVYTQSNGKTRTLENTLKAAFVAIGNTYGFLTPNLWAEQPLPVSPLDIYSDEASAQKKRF
Nature of the assay: two-hybrid; Yeast strain PJ69-4A; Rps2 variants C-terminally fused to the Gal4 DNA-binding domain, full-length Tsr4 C-terminally fused to the Gal4 activation domain, CEN low-copy plasmids; growth on -HLT (weak) and -ALT (strong), 3 days at 30 °C.

The target of assay [4] is T4, Rps2(1–22)-G4BD (S. cerevisiae) (UniProt P25443).
T4 sequence: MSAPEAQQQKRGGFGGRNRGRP
The description is as above.

Assay [5] concerns the target T5, Rps2(10–28)-G4BD (S. cerevisiae) (UniProt P25443).
T5 sequence: KRGGFGGRNRGRPNRRGPR
Described as above.

Assay [6] concerns the target T6, Rps2, the 28 N-terminal residues, G4BD fusion (S. cerevisiae) (UniProt P25443).
T6 sequence: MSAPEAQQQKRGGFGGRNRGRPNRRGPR
The assay is described as above.

For assay [7], the target named is T7, Rps2, the 33 N-terminal residues, G4BD fusion (S. cerevisiae) (UniProt P25443).
T7 sequence: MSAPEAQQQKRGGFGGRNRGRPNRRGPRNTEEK
The description is as above.

These are yes or no findings as the source states them, for the method shown. Some binding calls cover weakened binding; strength is not graded here. For some of these results: Sequences can lack the tags named with a protein.

B1: full-length Pse1-G4AD, P32337 1-1089 (protein)
chain: MSALPEEVNRTLLQIVQAFASPDNQIRSVAEKALSEEWITENNIEYLLTFLAEQAAFSQDTTVAALSAVLFRKLALKAPPSSKLMIMSKNITHIRKEVLAQIRSSLLKGFLSERADSIRHKLSDAIAECVQDDLPAWPELLQALIESLKSGNPNFRESSFRILTTVPYLITAVDINSILPIFQSGFTDASDNVKIAAVTAFVGYFKQLPKSEWSKLGILLPSLLNSLPRFLDDGKDDALASVFESLIELVELAPKLFKDMFDQIIQFTDMVIKNKDLEPPARTTALELLTVFSENAPQMCKSNQNYGQTLVMVTLIMMTEVSIDDDDAAEWIESDDTDDEEEVTYDHARQALDRVALKLGGEYLAAPLFQYLQQMITSTEWRERFAAMMALSSAAEGCADVLIGEIPKILDMVIPLINDPHPRVQYGCCNVLGQISTDFSPFIQRTAHDRILPALISKLTSECTSRVQTHAAAALVNFSEFASKDILEPYLDSLLTNLLVLLQSNKLYVQEQALTTIAFIAEAAKNKFIKYYDTLMPLLLNVLKVNNKDNSVLKGKCMECATLIGFAVGKEKFHEHSQELISILVALQNSDIDEDDALRSYLEQSWSRICRILGDDFVPLLPIVIPPLLITAKATQDVGLIEEEEAANFQQYPDWDVVQVQGKHIAIHTSVLDDKVSAMELLQSYATLLRGQFAVYVKEVMEEIALPSLDFYLHDGVRAAGATLIPILLSCLLAATGTQNEELVLLWHKASSKLIGGLMSEPMPEITQVYHNSLVNGIKVMGDNCLSEDQLAAFTKGVSANLTDTYERMQDRHGDGDEYNENIDEEEDFTDEDLLDEINKSIAAVLKTTNGHYLKNLENIWPMINTFLLDNEPILVIFALVVIGDLIQYGGEQTASMKNAFIPKVTECLISPDARIRQAASYIIGVCAQYAPSTYADVCIPTLDTLVQIVDFPGSKLEENRSSTENASAAIAKILYAYNSNIPNVDTYTANWFKTLPTITDKEAASFNYQFLSQLIENNSPIVCAQSNISAVVDSVIQALNERSLTEREGQTVISSVKKLLGFLPSSDAMAIFNRYPADIMEKVHKWFA
Take B1: the binding result in assay [1] and in assay [2] was “no binding” in each case.

B2: full-length Tsr4-G4AD (protein, UniProt P25040 1-408)
chain: MSKIEELPPSDTDDHSYSSKPGDVFLAFVDAPVKETDDILVEDSFIGGEPKWLHPDSEPPAELLKCGACKSADNMKLLLQAFSPLDDEQMSAIQQRLGINNMSYINPQDDRVLYVFLCTECQRKGNSVRCIRGVKKNKNVDSLSEKMASTSLEKDFQINPFDLSNNSDSKCNAFSSNPFGGANANPFGADSINSNISQSKDEGKKKESATVSAKTARKLHDLQKDKEYDGNKCFKSCLLYVEEETFKNKKPAHLQLPKNLKIDKEALDLTGDEDLEKDPIKLDPRTEKLSKFLDDDTFQKFQEVVGYNPLQVLRYDLGGKPLLYAETKVDILSTVPRPGYNPSSQRIFEMQLMPKMIFDLEEVVSVDNGMEWGTILVFTDVENYMPEFDEHGVGYVEECVKVQWESRT
Regarding B2, the binding result in assay [3] is on record as “binds”; in assay [4], “binds weakly”; in assay [5], “binds”; in assay [6], “binds”; in assay [7] it was “binds”.

Values taken from article PMC10377357 (2023).
